{"source": "PubChem BioAssay AID1845194", "about": "(Molecular Pharmacology Branch, DTP, NCI, 2023)", "test_system": "287954-098-R-J1 tumor spheroid viability", "assay": "Anticancer human tumor 287954-098-R-J1 patient-derived Ewing sarcoma cell line growth inhibition", "settings": "compound alone 30 µM; stronger effect = lower value; spheroids with HUVEC and MSC", "source_text": "Multicellular complex tumor spheroid response to DNA repair inhibitors in combination with DNA-damaging drugs\nThis study explores the anticancer activities of DNA-damaging drugs and inhibitors of DNA damage repair, both as single agents and in combinations. Complex tumor spheroids comprised of malignant cells, endothelial cells and mesenchymal stem cells served as an in vitro model for human solid tumors. This model system incorporates physiologically relevant features and patient-derived or established malignant cell lines with clinically relevant genetic alterations from many tumor types. Twenty-six patient-derived or established malignant cell lines were evaluated representing sarcoma, melanoma, small cell lung cancer (SCLC), non-small cell lung cancer (NSCLC), as well as bladder, ovarian and pancreatic cancers. The concentration ranges selected for each drug and investigational agent were based upon clinically achievable concentrations if the clinical Cmax of the agent was known.\nCompounds. […] If the clinical Cmax for an agent had not been determined, the highest concentration tested was 10 microM. […]", "note": "The source holds more than one record for some entries. This is not the full list of results. There may be further records. The records of an entry repeat one measurement across runs, samples, wells, individuals or studies.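 Further: luminescent signal taken as surrogate of viable cell content; spheroids exposed to compound for 7 days before viability readout; 100% = DMSO vehicle control viability and lower means growth inhibition.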", "data": [{"compound": "O=C(c1cc(Cc2n[nH]c(=O)c3ccccc23)ccc1F)N1CCN(C(=O)C2CC2)CC1", "values": [{"measurement": "viability, T/C", "value": "34.4%, 8.98%, 25.7%"}]}]}
